# In PubChem BioAssay AID463173 (ICCB-Longwood Screening Facility, Harvard Medical School, 2010):
# The whole screen tested about 52,000 compounds, of which about 4,300 (8.3%) were called active. Rule as the data show it: active = survival mostly below about 52% (no sharp cut-off); inactive = mostly above about 56%. This is one part of the list.
# System: DeltatarO mutant
# Experiment: S. aureus survival, RN4220 and DeltatarO strains – OD600, teichoic acid synthesis inhibitors, primary screen (AID 463173)
# Conditions: S. aureus RN4220 wild type/DeltatarO growth, OD600, 18 h, hits give low values, screened at 18.75 µg/mL (by protocol)
row,Compound,survival
1,CCOc1ccc(Nc2c(S(=O)(=O)c3ccccc3)cnc3ccc(CC)cc23)cc1,active: 34%
2,Cc1ccc(C(=O)c2cn(CC(=O)Nc3ccc4c(c3)OCCO4)c3nc(C)ccc3c2=O)cc1,inactive: 75%
3,COc1ccc(CCC(=O)NCCc2csc(-c3cccc(F)c3)n2)cc1,inactive: 83%
4,COc1cc2c(cc1NC(=O)C(C)Oc1ccc(Cl)cc1Cl)oc1ccccc12 (stereo not given),active: 38%
5,COc1ccc(NC(=O)c2oc3ccc4c(c3c2C)C(=O)CC(C)(C)O4)cc1OC,inactive: 70%
6,CC1CCN(C(C(=O)O)c2ccccc2)CC1 (stereo not given),inactive: 98%
7,COc1ccc(NC(=O)CCCN2C(=O)C(c3ccccc3)Oc3cccnc32)cc1OC (stereo not given),inactive: 77%
8,COc1cc(-c2nnc(SCC(=O)N(C)C3CCCCC3)o2)cc(OC)c1OC,inactive: 85%
9,Cc1ccc(CCNC(=O)CCCn2nc(C)c3c(C)n(-c4ccc(C)cc4)nc3c2=O)cc1,inactive: 94%
10,COc1ccc(-c2noc(CSc3nnc(-c4ccncc4)n3-c3cccc(C)c3)n2)cc1OC,inactive: 76%
11,CCS(=O)(=O)N1CCN(c2nc(C)nc3sc4c(c23)CCC(C)C4)CC1 (stereo not given),inactive: 102%
12,Cc1ccc(-c2cc(-c3coc4ccccc4c3=O)c3c(n2)-c2cc(Cl)ccc2OC3)cc1,inactive: 87%
13,Cc1cc(C)cc(NC(=O)NCC2CCN(Cc3cc(C)ccc3C)CC2)c1,inactive: 94%
14,CC(=O)Nc1ccc(-c2nnc3n(CC(C)C)c(=O)c4ccccc4n23)cc1,inactive: 96%
15,COc1ccccc1NC(=O)Cn1c(SCC(=O)NCc2ccccc2)nc2ccccc21,inactive: 70%
16,Cc1ccc(N2C(=O)[C@@H]3CSC(c4ccc(C(F)(F)F)cc4)N3C2=O)cc1 (stereo not given in full),inactive: 129%
17,COc1cccc(-c2nc(SC(C(C)=O)C(=O)N(C)C)c3c(=O)n(C)c(=O)n(C)c3n2)c1 (stereo not given),inactive: 69%
18,CCOC(=O)C1=C(CNCc2ccccc2)NC(=O)NC1c1ccc(C)cc1 (stereo not given),inactive: 63%
19,COc1ccc(C(=O)CC(=O)c2ccccc2O)cc1,inactive: 71%
20,COc1ccc(N2CCN(S(C)(=O)=O)CC2)cc1,inactive: 86%
21,COc1ccc(-n2c(=O)c3c(C)c(C)sc3n(Cc3ccc(F)cc3)c2=O)c(OC)c1,inactive: 60%
22,Cc1ccc(S(=O)(=O)N2CCCc3cc(NC(=O)c4ccc(C(F)(F)F)cc4)ccc32)cc1,inactive: 94%
23,Cc1cc(N2CCN(C)CC2)nc2ccc(NC(=O)Nc3ccccc3Cl)cc12,inactive: 87%

row,Compound,survival
1,Cc1ccc(OCC(=O)OCc2cc(=O)n3nc(C4CCCCC4)sc3n2)cc1,inactive: 120%
2,CCN(c1ncnc2c1c(-c1ccccc1)cn2-c1ccccc1)C1CCCCC1,inactive: 96%
3,Cc1nc(N2CC(C)OC(C)C2)c2nnn(Cc3c(F)cccc3Cl)c2n1 (stereo not given),inactive: 98%
4,COc1ccc(OC)c(CCNC(=O)c2sc3nc4n(c(=O)c3c2C)CCCC4)c1,inactive: 80%
5,CCOc1ccccc1NS(=O)(=O)c1c(C(=O)OC)sc2cccc(F)c12,active: 20%
6,COc1ccc(N(C(=O)c2ccccc2C)S(=O)(=O)c2ccc3c(c2)n(C)c(=O)n3C)cc1,inactive: 86%
7,CCNc1c(NC(=O)c2ccccc2OCC)c(=O)oc2ccccc12,inactive: 100%
8,CSCCC(NC(=O)C1CCCCC1)C(=O)Nc1ccc(F)c(Cl)c1 (stereo not given),inactive: 64%
9,Cc1cc(O)c(C(c2ccccc2Cl)N2CCCCC2)c(=O)n1Cc1ccco1 (stereo not given),inactive: 76%
10,Cc1ccc(C(C)C)c(OCC(=O)Nc2c(C(=O)c3ccc(F)cc3)oc3ccccc23)c1,inactive: 79%
11,Cc1c2cnn(CC(=O)N3CCCCC3)c(=O)c2c(C)n1Cc1ccc(Cl)cc1,inactive: 64%
12,Cc1ccc(NC(=O)c2ccc3c(=O)n4nc(Nc5ccccc5C)sc4nc3c2)cc1C,inactive: 83%
13,CCc1ccc(C2N3CC4(C)CN2CC(c2ccccc2)(C3)C4=O)cc1 (stereo not given),inactive: 105%
14,CCn1cc(C(=O)NCc2ccccc2)c(=O)c2cc(S(=O)(=O)N3CCOCC3)ccc21,inactive: 76%
15,O=C(COC(=O)c1ccco1)Nc1nc2ccccc2s1,inactive: 76%
16,CCOc1ccccc1NC(=O)C1CCN(S(=O)(=O)Cc2ccccc2)CC1,inactive: 62%
17,Cc1cc(=O)n(C(C)C(=O)NCc2ccccc2Cl)c2c1c(C)nn2-c1ccccc1 (stereo not given),inactive: 99%
18,COc1ccc(NC(=O)c2ccc(-c3cccc(Cl)c3C)o2)cc1,active: 16%
19,CCn1c(CN2CCCCC2)nc2cc(NC(=O)COc3ccc([N+](=O)[O-])cc3)ccc21,inactive: 66%
20,CCCSc1nnc(CN2CCOCC2)n1C,inactive: 89%
21,CC(NC(=O)Cc1ccc(NC(=O)N2CCCCc3ccccc32)cc1)c1ccccc1 (stereo not given),inactive: 87%
22,COc1ccc(-c2nc(CSc3nc4ncccc4[nH]3)c(C)o2)cc1OC,inactive: 67%
23,CC(NC(=O)c1ccc(N2Cc3ccccc3Oc3ncccc32)s1)c1ccccc1 (stereo not given),inactive: 83%

row,Compound,survival
1,CCOC(=O)C(C)NC(=O)c1cc2c(=O)[nH]c3ccc(C)cc3c2s1 (stereo not given),inactive: 57%
2,O=C(NCCc1ccc(Cl)cc1)c1ccc2c(c1)N(Cc1ccc(F)cc1Cl)C(=O)CS2,inactive: 49%
3,Cc1c(Cl)cccc1NC(=O)C(=O)NCCc1csc(-c2cccc(F)c2)n1,inactive: 76%
4,CCc1ccccc1N1CC(c2nc3ccccc3n2CCC2CCCCC2)CC1=O (stereo not given),active: 10%
5,COc1cccc(NS(=O)(=O)c2ccc3[nH]cc(C(=O)N(C)Cc4ccco4)c(=O)c3c2)c1,inactive: 85%
6,CC(C)c1ccc(NC(=O)CSC2=Nc3ccccc3C3=NC(CC(=O)NCc4ccco4)C(=O)N23)cc1 (stereo not given),inactive: 73%
7,O=c1c2ccccc2n2c(-c3cccc(F)c3)nnc2n1Cc1ccccc1,inactive: 92%
8,CCOC(=O)N1CCN(C(=O)c2cnn(-c3cccc(C)c3)c2-n2cccc2)CC1,inactive: 94%
9,Cc1ccc(-n2nc(C)c(C(=O)NCCCN3CCN(c4ccccc4F)CC3)c2-n2cccc2)cc1,inactive: 131%
10,COc1ccc(C(=O)Nc2ccc3c(c2)N(C)C(=O)c2ccccc2S3)cc1OC,inactive: 72%
11,CCOC(=O)c1cnc2c(C)cc(C)cc2c1Nc1ccc(N2CCOCC2)cc1,active: 14%
12,Cc1nnc(NC(=O)CSc2ncccn2)s1,inactive: 77%
13,CN(Cc1ccccc1)C(=O)c1ccc2c(c1)N(Cc1ccc(Cl)cc1)C(=O)c1ccccc1S2=O (stereo not given),inactive: 71%
14,CCCOc1ccccc1C(=O)Nc1nc2c(s1)CCCC2,inactive: 107%
15,Cc1cccc(C)c1OCc1cc(=O)n2ccsc2n1,inactive: 64%
16,COc1cc(OC)cc(C(=O)Nc2ccc(O)c(-c3nc4cc(C)c(C)cc4o3)c2)c1,inactive: 77%
17,COc1cc(OC)c(NC(=O)C(C)n2nc(-c3ccc(C)c(C)c3)ccc2=O)cc1Cl (stereo not given),inactive: 64%
18,CC(=O)Nc1ccc(S(=O)(=O)NC(=O)CC(C)C)cc1,inactive: 93%
19,Cc1cccc(N2CCN(C(=O)c3c4c(nc5ccccc35)C(=O)N(C3CCCCC3)C4)CC2)c1C,inactive: 118%
20,Cc1cc(SCCOc2ccccc2)nc(N)n1,inactive: 95%
21,COc1ccc(OC)c(NC(=O)c2cc3c(=O)n4cccc(C)c4nc3n2C)c1,inactive: 65%
22,Cc1ccc(N(C)C(=O)c2noc3c2CCCCC3)cc1C,inactive: 69%
23,COC(=O)c1c(NC(=O)CCCOc2ccccc2C)sc2c1CCC2,active: 4%

row,Compound,survival
1,O=C(NCCCO)c1ccc(CSc2nc3ccccc3c(=O)[nH]2)cc1,inactive: 114%
2,Cc1ccc(C)c(NS(=O)(=O)c2ccc3c(c2)CCCN3C(=O)C2CCC2)c1,inactive: 85%
3,O=C(NCc1ccccc1F)C(=O)NCC(c1ccco1)S(=O)(=O)c1ccccc1 (stereo not given),active: -5%
4,COC(=O)c1ccc2c(c1)n(CCO)c(C)[n+]2CCO,inactive: 80%
5,COc1ccc(C(C(=O)NCc2ccccc2)N(C(=O)Cn2nnc3ccccc32)c2ccc(OC)cc2)cc1 (stereo not given),inactive: 60%
6,CCCN1Cc2cccc(C(=O)Nc3ccc(OC)cc3OC)c2C1=O,inactive: 82%
7,Cc1ccc(NC(=O)N2CCc3c([nH]c4ccccc34)C2c2ccccc2F)c(Cl)c1 (stereo not given),inactive: 89%
8,O=C(Cn1c(=O)c2sccc2n(CC(=O)Nc2ccc(Cl)cc2Cl)c1=O)NCCc1ccccc1,inactive: 79%
9,COc1cccc(C(=O)c2cn(CC(=O)Nc3cccc(Cl)c3C)c3nc(C)ccc3c2=O)c1,inactive: 78%
10,CSc1ncc(C(=O)NCc2cccc(Br)c2)c(-c2ccccc2)n1,inactive: 83%
11,O=C(CSc1nc(-c2ccccc2)cc(=O)[nH]1)Nc1ccccc1,inactive: 77%
12,COCCN1C(=O)c2oc3ccc(C)cc3c(=O)c2C1c1ccc(C(=O)OC)cc1 (stereo not given),inactive: 74%
13,Cc1cc(C)cc(NC(=O)Nc2c[nH]c(=O)[nH]c2=O)c1,inactive: 82%
14,COc1ccc(NS(=O)(=O)c2cc3c4c(c2)CC(=O)N4CCC3)cc1Cl,inactive: 115%
15,O=C(NC1(C(F)(F)F)N=C(c2ccccc2)N(C2CCCCC2)C1=O)c1ccccc1F (stereo not given),inactive: 68%
16,CCn1c(CN2CCC(C)CC2)nc2cc(NC(=O)c3cccc([N+](=O)[O-])c3)ccc21,inactive: 85%
17,COc1ccc(OC)c(CCNc2ncnc3onc(C)c23)c1,inactive: 107%
18,CC(=O)Nc1nnc(C(C)C)s1,inactive: 77%
19,COC(=O)c1cc2sc(Cl)cc2n1Cc1nc(-c2ccccc2F)oc1C,inactive: 119%
20,Cc1ccc(CCNC(=O)c2ccc(CNS(=O)(=O)c3ccc(F)cc3)cc2)cc1,inactive: 83%
21,CC(=O)N1CCc2c(sc(NC(=O)CSc3ccc(C)cc3)c2-c2nc3ccccc3s2)C1,inactive: 92%
